# The whole screen tested about 110,000 compounds, of which about 230 (0.21%) showed an effect of 50% or more. This is one part of the list.
# Target: DPAP1 (Plasmodium falciparum, UniProt Q8IIJ9)
# Assay: primary screen, percent inhibition; read by cleavage of a fluorogenic dipeptide substrate; higher = more effect of the substance
# Design: species or system P. falciparum D10 trophozoite lysates; single well
# 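Note: 30 min substrate incubation versus DMSO and 10 µM JCP410 controls.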
# Sequence of DPAP1 (Q8IIJ9 whole entry, looked up): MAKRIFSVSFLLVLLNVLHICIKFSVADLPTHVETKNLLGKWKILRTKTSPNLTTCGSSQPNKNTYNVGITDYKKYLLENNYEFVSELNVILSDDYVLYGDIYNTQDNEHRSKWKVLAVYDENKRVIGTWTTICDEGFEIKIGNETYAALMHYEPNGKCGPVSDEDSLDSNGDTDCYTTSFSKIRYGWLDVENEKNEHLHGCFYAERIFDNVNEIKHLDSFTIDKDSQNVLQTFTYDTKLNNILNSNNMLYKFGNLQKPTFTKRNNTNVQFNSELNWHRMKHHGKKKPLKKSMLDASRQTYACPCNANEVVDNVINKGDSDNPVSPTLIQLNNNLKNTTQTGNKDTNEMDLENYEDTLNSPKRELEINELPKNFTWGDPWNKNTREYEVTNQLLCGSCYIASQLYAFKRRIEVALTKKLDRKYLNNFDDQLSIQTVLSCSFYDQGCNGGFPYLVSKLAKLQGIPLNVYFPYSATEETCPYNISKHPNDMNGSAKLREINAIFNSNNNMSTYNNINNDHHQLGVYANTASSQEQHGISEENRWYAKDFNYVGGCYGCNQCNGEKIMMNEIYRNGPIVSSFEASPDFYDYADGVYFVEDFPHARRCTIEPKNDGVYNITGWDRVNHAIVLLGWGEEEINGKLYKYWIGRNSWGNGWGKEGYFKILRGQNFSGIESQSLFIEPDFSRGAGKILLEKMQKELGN
row,Structure (SMILES),% Inhibition @ 10 uM
1,COc1ccc(Br)cc1CNC(=O)c1ccc2c(c1)ncn2C1CCCC1,3.66%
2,COC(=O)c1ccc(COc2ccc3c(c2)O/C(=C\c2ccc(OC)cc2)C3=O)cc1,-3.63%
3,CCCc1cc(O)n2nc(NCc3cccs3)nc2n1,-0.671%
4,COc1ccc(-c2[nH]nc3c2C(c2ccc(C(C)C)cc2)NC3=O)cc1 (stereo not drawn),-3.35%
5,COC(=O)c1c(C)nn(-c2ccc(C)cc2)c1N,1.63%
6,CC(=O)c1c(N)nc(-c2ccccc2)nc1S,-5.51%
7,Cc1nc2ccccc2cc1C(=O)Nc1ccc(F)cc1,3.49%
8,NC(=O)c1c(NC(=O)c2ccccc2F)sc2c1CCCCCC2,24.9%
9,Cc1ccc(CSCCNC(=O)c2ccccc2C)cc1,3.62%
10,O=C(CSCC(=O)c1ccc2c(c1)Cc1ccccc1-2)Nc1ccccc1,-1.96%
11,O=C(COc1ccccc1Cl)Nc1ncc(Cc2cccc(C(F)(F)F)c2)s1,-1.26%
12,O=C(NCCO)/C(=C/c1ccc(-c2ccc([N+](=O)[O-])cc2)o1)NC(=O)c1ccccc1,-2.59%
13,COc1cc(-c2cc(C(=O)O)c3c(OC)c(OC)c(OC)cc3n2)ccc1O,4.23%
14,COc1nc(NCCCN2CCOCC2)nc(N2CCCCCC2)n1,-9.29%
15,COc1ccc(C(=O)Nc2nc(C34CC5CC(CC(C5)C3)C4)c(C)s2)cc1,-1.93%
16,Nc1ccc(-c2nc3cc(-c4ccc5[nH]c(-c6ccc(N)cc6)nc5c4)ccc3[nH]2)cc1,18.3%
17,COCCCNCc1c(C(=O)O)n(Cc2ccccc2)c2cc(OC)ccc12,1.53%
18,O=C1CCCCC1C(Nc1ccc2ncccc2c1)c1ccc(F)cc1 (stereo not drawn),8.53%
19,COc1ccc(-c2nc3n(n2)C(c2cccc(O)c2)C(C(=O)Nc2cccnc2)=C(C)N3)cc1 (stereo not drawn),0.275%
20,Clc1ccccc1N1N=C(c2ccccc2)CC1c1ccc(Br)cc1 (stereo not drawn),-3.92%
21,COc1ccc(-c2cc(C(=O)NCCN3CCOCC3)c3ccccc3n2)cc1,-6.04%
22,O=C(Nc1cnn(Cc2ccc(Cl)cc2)c1)C1CCCCC1,-1.88%
23,Cc1ccc(Cn2ncn3c(cc4ccccc43)c2=O)cc1,-3.34%
24,COc1ccc(C(=O)c2sc3nc(C)cc(-c4cccs4)c3c2N)cc1,12%
25,O=C1S/C(=C/c2ccccc2)C(=O)N1CC(O)Cn1c2ccccc2c2ccccc21 (stereo not drawn),-2.27%
26,O=C(Nc1cccc(Cl)c1)Nc1ccc(F)c(Cl)c1,2.74%
27,COc1cccc(/N=C2\SC(C(=O)Nc3ccccc3OC)CC(=O)N2C)c1 (stereo not drawn),2.08%
